According to paper PMC11110689:
Numbering of substitutions follows the chain as printed. Names may count otherwise. No constants are given. Whether binding was seen depends on the method and setting. Some binding calls cover weakened binding; strength is not graded here. Tags and fused reporters may be left off the sequences shown.

The chains behind the UniProt entries cited, without tags or fusion partners.
UniProt Q9NWT6: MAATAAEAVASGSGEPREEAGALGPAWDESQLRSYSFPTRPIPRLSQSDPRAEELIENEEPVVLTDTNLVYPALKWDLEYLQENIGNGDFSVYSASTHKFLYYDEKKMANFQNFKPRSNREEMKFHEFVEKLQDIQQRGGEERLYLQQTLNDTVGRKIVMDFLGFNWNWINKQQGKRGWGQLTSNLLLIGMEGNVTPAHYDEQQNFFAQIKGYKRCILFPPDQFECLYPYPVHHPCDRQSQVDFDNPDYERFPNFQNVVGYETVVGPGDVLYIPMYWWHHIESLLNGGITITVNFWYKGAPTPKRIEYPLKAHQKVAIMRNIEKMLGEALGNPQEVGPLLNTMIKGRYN

B1: IκBβ-FLAG N266A (protein, UniProt Q15653 1-356)
chain: MAGVACLGKAADADEWCDSGLGSLGPDAAAPGGPGLGAELGPGLSWAPLVFGYVTEDGDTALHLAVIHQHEPFLDFLLGFSAGTEYMDLQNDLGQTALHLAAILGETSTVEKLYAAGAGLCVAERRGHTALHLACRVGAHACARALLQPRPRRPREAPDTYLAQGPDRTPDTNHTPVALYPDSDLEKEEEESEEDWKLQLEAENYEGHTPLHVAVIHKDVEMVRLLRDAGADLDKPEPTCGRSPLHLAVEAQAADVLELLLRAGAAPAARMYGGRTPLGSAMLRPNPILARLLRAHGAPEPEGEDEKSGPCSSSSDSDSGDEGDEYDDIVVHSSRSQTRLPPTPASKPLPDDPRPV
B2: IκBβ-FLAG D195A (protein, UniProt Q15653 1-356)
chain: B1 chain with D195A, A266N
B3: truncated IκBβ fragment containing the N-terminal 126 aa (domain or fragment, UniProt Q15653 1-126)
chain: MAGVACLGKAADADEWCDSGLGSLGPDAAAPGGPGLGAELGPGLSWAPLVFGYVTEDGDTALHLAVIHQHEPFLDFLLGFSAGTEYMDLQNDLGQTALHLAAILGETSTVEKLYAAGAGLCVAERR
B4: p100 (protein, UniProt Q00653-1 1-900)
chain: MESCYNPGLDGIIEYDDFKLNSSIVEPKEPAPETADGPYLVIVEQPKQRGFRFRYGCEGPSHGGLPGASSEKGRKTYPTVKICNYEGPAKIEVDLVTHSDPPRAHAHSLVGKQCSELGICAVSVGPKDMTAQFNNLGVLHVTKKNMMGTMIQKLQRQRLRSRPQGLTEAEQRELEQEAKELKKVMDLSIVRLRFSAFLRASDGSFSLPLKPVISQPIHDSKSPGASNLKISRMDKTAGSVRGGDEVYLLCDKVQKDDIEVRFYEDDENGWQAFGDFSPTDVHKQYAIVFRTPPYHKMKIERPVTVFLQLKRKRGGDVSDSKQFTYYPLVEDKEEVQRKRRKALPTFSQPFGGGSHMGGGSGGAAGGYGGAGGGGSLGFFPSSLAYSPYQSGAGPMGCYPGGGGGAQMAATVPSRDSGEEAAEPSAPSRTPQCEPQAPEMLQRAREYNARLFGLAQRSARALLDYGVTADARALLAGQRHLLTAQDENGDTPLHLAIIHGQTSVIEQIVYVIHHAQDLGVVNLTNHLHQTPLHLAVITGQTSVVSFLLRVGADPALLDRHGDSAMHLALRAGAGAPELLRALLQSGAPAVPQLLHMPDFEGLYPVHLAVRARSPECLDLLVDSGAEVEATERQGGRTALHLATEMEELGLVTHLVTKLRANVNARTFAGNTPLHLAAGLGYPTLTRLLLKAGADIHAENEEPLCPLPSPPTSDSDSDSEGPEKDTRSSFRGHTPLDLTCSTKVKTLLLNAAQNTMEPPLTPPSPAGPGLSLGDTALQNLEQLLDGPEAQGSWAELAERLGLRSLVDTYRQTTSPSGSLLRSYELAGGDLAGLLEALSDMGLEEGVRLLRGPETRDKLPSTAEVKEDSAYGSQSVEQEAEKLGPPPEPPGGLCHGHPQPQVH
B5: Bcl-3 (protein, UniProt P20749 1-454)
chain: MPRCPAGAMDEGPVDLRTRPKAAGLPGAALPLRKRPLRAPSPEPAAPRGAAGLVVPLDPLRGGCDLPAVPGPPHGLARPEALYYPGALLPLYPTRAMGSPFPLVNLPTPLYPMMCPMEHPLSADIAMATRADEDGDTPLHIAVVQGNLPAVHRLVNLFQQGGRELDIYNNLRQTPLHLAVITTLPSVVRLLVTAGASPMALDRHGQTAAHLACEHRSPTCLRALLDSAAPGTLDLEARNYDGLTALHVAVNTECQETVQLLLERGADIDAVDIKSGRSPLIHAVENNSLSMVQLLLQHGANVNAQMYSGSSALHSASGRGLLPLVRTLVRSGADSSLKNCHNDTPLMVARSRRVIDILRGKATRPASTSQPDPSPDRSANTSPESSSRLSSNGLLSASPSSSPSQSPPRDPPGFPMAPPNFFLPSPSPPAFLPFAGVLRGPGRPVPPSPAPGGS
B6: IκBβ ARD 4–6 (amino acids 167–356) (domain or fragment, UniProt Q15653 167-356)
chain: DRTPDTNHTPVALYPDSDLEKEEEESEEDWKLQLEAENYEGHTPLHVAVIHKDVEMVRLLRDAGADLDKPEPTCGRSPLHLAVEAQAADVLELLLRAGANPAARMYGGRTPLGSAMLRPNPILARLLRAHGAPEPEGEDEKSGPCSSSSDSDSGDEGDEYDDIVVHSSRSQTRLPPTPASKPLPDDPRPV
B7: IκBβ with deletion of aa 127–136 (protein, UniProt Q15653)
chain: MAGVACLGKAADADEWCDSGLGSLGPDAAAPGGPGLGAELGPGLSWAPLVFGYVTEDGDTALHLAVIHQHEPFLDFLLGFSAGTEYMDLQNDLGQTALHLAAILGETSTVEKLYAAGAGLCVAERRVGAHACARALLQPRPRRPREAPDTYLAQGPDRTPDTNHTPVALYPDSDLEKEEEESEEDWKLQLEAENYEGHTPLHVAVIHKDVEMVRLLRDAGADLDKPEPTCGRSPLHLAVEAQAADVLELLLRAGANPAARMYGGRTPLGSAMLRPNPILARLLRAHGAPEPEGEDEKSGPCSSSSDSDSGDEGDEYDDIVVHSSRSQTRLPPTPASKPLPDDPRPV
B8: IκBβ with deletion of aa 117–126 (protein, UniProt Q15653)
chain: B7 chain with A118H, G119T, L120A, C121L, V122H, A123L, E124A, R125C
B9: IκBβ with deletion of aa 122–131 (protein, UniProt Q15653)
chain: B7 chain with V122H, A123L, E124A, R125C
B10: IκBβ with deletion of aa 132–141 (protein, UniProt Q15653)
chain: B7 chain with V127G, G128H, A129T, H130A, A131L
B11: IκBβ with deletion of aa 137–146 (protein, UniProt Q15653)
chain: B7 chain with V127G, G128H, A129T, H130A, A131L, C132H, A133L, R134A, A135C, L136R
B12: IκBβ ARD 1–3 (amino acids 1–166) (domain or fragment, UniProt Q15653 1-166)
chain: MAGVACLGKAADADEWCDSGLGSLGPDAAAPGGPGLGAELGPGLSWAPLVFGYVTEDGDTALHLAVIHQHEPFLDFLLGFSAGTEYMDLQNDLGQTALHLAAILGETSTVEKLYAAGAGLCVAERRGHTALHLACRVGAHACARALLQPRPRRPREAPDTYLAQGP
B13: IκBε (protein, UniProt O00221 1-500)
chain: MNQRRSESRPGNHRLQAYAEPGKGDSGGAGPLSGSARRGRGGGGAIRVRRPCWSGGAGRGGGPAWAVRLPTVTAGWTWPALRTLSSLRAGPSEPHSPGRRPPRAGRPLCQADPQPGKAARRSLEPDPAQTGPRPARAAGMSEARKGPDEAEESQYDSGIESLRSLRSLPESTSAPASGPSDGSPQPCTHPPGPVKEPQEKEDADGERADSTYGSSSLTYTLSLLGGPEAEDPAPRLPLPHVGALSPQQLEALTYISEDGDTLVHLAVIHEAPAVLLCCLALLPQEVLDIQNNLYQTALHLAVHLDQPGAVRALVLKGASRALQDRHGDTALHVACQRQHLACARCLLEGRPEPGRGTSHSLDLQLQNWQGLACLHIATLQKNQPLMELLLRNGADIDVQEGTSGKTALHLAVETQERGLVQFLLQAGAQVDARMLNGCTPLHLAAGRGLMGISSTLCKAGADSLLRNVEDETPQDLTEESLVLLPFDDLKISGKLLLCTD

target: factor inhibiting HIF (FIH), V5-tagged (FIH-V5) (UniProt Q9NWT6); experiment: immunoblot of a denaturation-resistant (SDS-PAGE) complex; HEK293 cells transiently co-transfected, normoxia; complex seen at the summed molecular weight; also with FG-4592 (0.1 mM), DM-NOFD (1 mM) or MG132 (10 μM), and with lysates treated with DTT or β-mercaptoethanol, 5 min at 95 °C; shows only complexes that resist denaturation

binding | Binder
binds | B1
binds | B2
no binding | B3
no binding | B4
no binding | B5
no binding | B6
binds | B7
no binding | B8
no binding | B9
binds | B10
binds | B11
binds | B12
no binding | B13
